This is an account of results in the supplement of paper PMC10600219.

The structures appear in SMILES notation. Structures can show the parent of a compound that is named as a salt. Over roughly 2,800 compounds, “cell viability relative to vehicle” has its median near 0.98; the lowest 2% begin near 0.45. The list shows a part of the results.

In this experiment the test system is NCI-H2228 alectinib-DTP. In words: cell viability relative to vehicle (fraction of vehicle); NCI-H2228 is an ALK-positive lung cancer line and DTP means drug-tolerant persister; higher = less growth inhibition. The note with it: 100 nM; treatment time 6 days. The method in brief: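 Values give cell viability as a fraction of vehicle-treated cells. Parental and drug-tolerant persister NCI-H2228 cells (persisters made with 1000 nM of a targeted drug for 13 days) were exposed in 384-well plates to the 3114-agent TargetMol anti-cancer compound library at 100 nM, with DMSO as vehicle. ATP was then read after 6 days by the CellTiter-Glo 3D Cell Viability Assay.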
`CCNC(=O)c1noc(-c2cc(Cl)c(O)cc2O)c1-c1ccc(OC)cc1` displayed a cell viability of 0.844.
The figure for `C[C@@H]1CN(c2c(F)c(N)c3c(=O)c(C(=O)O)cn(C4CC4)c3c2F)C[C@H](C)N1` [Sparfloxacin] is 1.
`CNCCN(C)Cc1cn[nH]c1-c1ccc(OC2CC(OCCC3CCOCC3)C2)cc1` (stereo not drawn) yielded a cell viability of 1.05.
`COc1cc2c(cc1O)[C@@H](Cc1ccc(O)c(Oc3ccc(C[C@@H]4c5cc(OC)c(OC)cc5CCN4C)cc3)c1)N(C)CC2` [Daurisoline] had a cell viability of 1.07.
The compound `CC(C)(C)NS(=O)(=O)c1cncc(-c2cc(F)c3nc(N)nn3c2)c1` came in with a cell viability of 1.03.
In turn, `COc1cc2c(=O)c(-c3ccc(O)cc3)coc2cc1O[C@@H]1O[C@H](CO)[C@@H](O)[C@H](O)[C@H]1O` [Glycitin] came in with a cell viability of 0.958.
Turning to `O=C(O)P(=O)(O)O` [Foscarnet sodium], the cell viability was determined as 1.06.
As for `CCCCCCCCCCCCCCCC[N+](C)(C)CCN(Cc1ccc(OC)cc1)c1ncccn1` [Thonzonium Bromide], the cell viability came out at 0.949.
`O=C1C=C2C=C[C@@H](O)[C@H](O)[C@H]2O1` [griffonilide] returned a cell viability of 1.01.
The figure for `COc1cc(OC)cc(N(CCNC(C)C)c2ccc3ncc(-c4cnn(C)c4)nc3c2)c1` [Erdafitinib] is 0.759; for `CC(=O)c1cc(O)ccc1O` [2-5-dihydroxyacetophenone] it is 1.02; for `CCN(CC)CCCC(C)Nc1c2ccc(Cl)cc2nc2ccc(OC)cc12` (stereo not drawn) [Quinacrine dihydrochloride] it is 0.927.
Compound `CN(CCOc1ccc(NS(C)(=O)=O)cc1)CCc1ccc(NS(C)(=O)=O)cc1` [Dofetilide] showed a cell viability of 1.02.
As to `CNCC(O)c1ccc(O)c(O)c1` (racemic) [DL-Adrenaline Hydrochloride], the cell viability amounted to 1.05.
`CC(=O)N1CCN(c2ccc(OCC3COC(Cn4ccnc4)(c4ccc(Cl)cc4Cl)O3)cc2)CC1` (stereo not drawn) [Ketoconazole] came in with a cell viability of 1.06.
For the compound `Cc1[nH]c(/C=C2\C(=O)Nc3ccccc32)c(C)c1CCC(=O)O` [Orantinib], the cell viability was 0.886.
In turn, `C1=N/C2=N/c3ccc(OCCN4CCCC4)c(c3)COC/C=C/COCc3cccc(c3)C(=C1)N2` [Pacritinib] yielded a cell viability of 1.04.
In turn, `COc1ccc2cccc(CCNC(C)=O)c2c1` [Agomelatine] displayed a cell viability of 0.797.
The compound `CNc1ncc2cc(-c3cc(NC(=O)NCCC(C)(C)C)c(F)cc3C)c(C)nc2n1` registered a cell viability of 0.945.
On to `CC(C)NCC(O)c1ccc(NS(C)(=O)=O)cc1` (stereo not drawn) [Sotalol hydrochloride], for which the cell viability amounted to 1.02.
For the compound `C#C[C@]1(O)CC[C@H]2[C@@H]3CCc4cc(OC)ccc4[C@H]3CC[C@@]21C` [Mestranol], the cell viability was 0.783.
On to `CN(C)C(=O)c1ccc(S(=O)(=O)c2ccc(NC(=O)[C@@](C)(O)C(F)(F)F)c(Cl)c2)cc1`, for which the cell viability was determined as 0.997.
`COc1nccnc1NS(=O)(=O)c1ccc(NC(=O)/C=C/c2ccc([N+](=O)[O-])s2)cc1` [Necrosulfonamide] came in with a cell viability of 0.903.
The figure for `CCOc1ccccc1C(N)=O` [2-Ethoxybenzamide] is 1.19.
For `N[C@@H]1CCCN(c2c(/C=C3\SC(=O)NC3=O)cccc2-c2ccccc2)C1`, the cell viability is 0.933.
`CO[C@H]1C[C@@H]2CC[C@@H](C)[C@@](O)(O2)C(=O)C(=O)N2CCCC[C@H]2C(=O)O[C@H]([C@H](C)C[C@@H]2CC[C@@H](O)[C@H](OC)C2)CC(=O)[C@H](C)/C=C(\C)[C@@H](O)[C@@H](OC)C(=O)[C@H](C)C[C@H](C)/C=C/C=C/C=C/1C` [Rapamycin] yielded a cell viability of 0.861.
`CNC(=O)c1c(C)oc2cc(Oc3ncnc4cc(OC)c(OC)cc34)ccc12` [Fruquintinib] returned a cell viability of 0.933.
Compound `N#Cc1ccc2[nH]c(O)c(-c3ccc(CN4CCOCC4)cn3)c2c1` came in with a cell viability of 0.939.
The figure for `Oc1ccc(Nc2nc(-c3ccc(Cl)cc3)cs2)cc1` is 0.973.
`COc1cc2ncnc(Nc3ccc(Cl)cc3F)c2cc1OC` came in with a cell viability of 0.865.
The figure for `O=[N+]([O-])c1cc(C(F)(F)F)cc([N+](=O)[O-])c1NNC(=S)Nc1ccc(F)cc1` is 1.07; for `O=C1O[C@H]2[C@@H]3OC(=O)c4cc(O)c(O)c(O)c4-c4c(cc(O)c(O)c4O)C(=O)OC[C@H]2O[C@@H](OC(=O)c2cc(O)c(O)c(O)c2)[C@@H]3OC(=O)c2cc(O)c(O)c3c2[C@@H]2C1=CC(=O)[C@](O)(O3)C2(O)O` [Geraniin] it is 1.09; for `COc1ccc(/C=C\c2cc(OC)c(OC)c(OC)c2)cc1OP(=O)(O)O` [Fosbretabulin Disodium] it is 0.561.
`CCS(=O)(=O)c1ccc2oc(-c3ccc4ccccc4c3)nc2c1` [Ezutromid] displayed a cell viability of 0.954.
`COC(=O)c1ccc2c(c1)NC(=O)/C2=C(\Nc1ccc(N(C)C(=O)CN2CCN(C)CC2)cc1)c1ccccc1` [Nintedanib] showed a cell viability of 0.783.
The figure for `C[C@@H]1O[C@@H](O[C@@H]2[C@@H](O)[C@H](OCCc3ccc(O)c(O)c3)O[C@H](CO)[C@H]2OC(=O)/C=C/c2ccc(O)c(O)c2)[C@H](O)[C@H](O)[C@H]1O` [Verbascoside] is 1.12; for `O=C(O[C@@H]1Cc2c(O)cc(O)cc2O[C@@H]1c1cc(O)c(O)c(O)c1)c1cc(O)c(O)c(O)c1` [(-)-Epigallocatechin Gallate] it is 0.875; for `N#Cc1ccc2ncnc(NC3CCC(N4CCOCC4)CC3)c2c1` (stereo not drawn) it is 1.12.
Consider `CC(C)C[C@H](NC(=O)CNC(=O)c1cc(Cl)ccc1Cl)B(O)O` [Ixazomib], for which the cell viability stood at 0.28.
The compound `CNC[C@H](O)c1cccc(O)c1` [Phenylephrine hydrochloride] had a cell viability of 1.07.
`Cc1nc(Nc2n[nH]c3c2CN(C(=O)N[C@H](CN(C)C)c2ccccc2)C3(C)C)c2sccc2n1` gave a cell viability of 0.935.
`CCC(=O)NS(=O)(=O)c1ccc(-c2c(-c3ccccc3)noc2C)cc1` [Parecoxib] came in with a cell viability of 0.828.
For the compound `CCOc1ccn(-c2ccc(F)cc2)c(=O)c1C(=O)Nc1ccc(Oc2ccnc(N)c2Cl)c(F)c1`, the cell viability turned out to be 0.906.
Regarding `CSc1cccc(Nc2ncc3cc(-c4c(Cl)cccc4Cl)c(=O)n(C)c3n2)c1`, the cell viability was found to be 0.665.
The compound `O=C(NOCCO)c1cc(CN2OCCCC2=O)c(F)c(F)c1Nc1ccc(I)cc1F` registered a cell viability of 0.84.
With `Cc1c(-c2ccc(N3CCc4cccc(C(=O)Nc5nc6ccccc6s5)c4C3)nc2C(=O)O)cnn1CC12CC3CC(CC(C3)C1)C2`, the cell viability was found to be 0.806.
In turn, `Cc1cc(N2CCOCC2)ccc1Nc1nc(NC2CCCCC2)c2[nH]cnc2n1` had a cell viability of 1.13.
Regarding `O=c1c(-c2ccc(O)cc2)coc2cc(O)cc(O)c12` [Genistein], the cell viability is 0.922.
In turn, `CC(C)C[C@H](NC(=O)[C@@H](O)[C@H](N)Cc1ccccc1)C(=O)O` [Bestatin hydrochloride] came in with a cell viability of 1.12.
`CC(C)C[C@H](NC(=O)[C@@H](O)[C@H](N)Cc1ccccc1)C(=O)O` [Ubenimex] had a cell viability of 1.05.
In turn, `C=CCc1ccc(O)c(-c2ccc(O)c(CC=C)c2)c1` [Honokiol] had a cell viability of 1.07.
`CNC(=C[N+](=O)[O-])NCCSCc1ccc(CN(C)C)o1` [Ranitidine Hydrochloride]: the cell viability was determined as 0.884.
Take `COc1cc2c(cc1OC)-c1cc3ccc(OC)c(OC)c3c[n+]1CC2` [Palmatine]: the cell viability was 1.12.
On to `COC(=O)[C@H]1[C@H]2C[C@@H]3c4[nH]c5cc(OC)ccc5c4CCN3C[C@H]2C[C@@H](OC(=O)c2cc(OC)c(OC)c(OC)c2)[C@@H]1OC` [Reserpine], for which the cell viability was 0.874.
`Cc1cc(-c2nc(-c3ccc(OC(F)(F)F)cc3)no2)nn1Cc1ccnc(N2CCN(C3CC3)CC2)c1`: the cell viability was found to be 0.691.
For `CC(C)(C)c1ccc(S(=O)(=O)Nc2ccc(-n3ccnc3)cc2)cc1`, the cell viability came out at 1.08.
For `Cc1ccc2c(Nc3ccc(Cl)cc3)nccc2c1Nc1ncccc1-c1ncnc2nc[nH]c12` [B-Raf inhibitor 1 dihydrochloride], the cell viability is 1.1.
The figure for `CC1=C(C(=O)Nc2cc3cn[nH]c3cc2F)C(c2ccc(Cl)cc2F)N=C(c2ccnc(Cl)c2)N1` (stereo not drawn) is 1.
`N#CCC(C1CCCC1)n1cc(-c2ncnc3[nH]ccc23)cn1` (stereo not drawn): the cell viability came out at 1.16.
On to `Cc1cncc(CN2CCC(=C3c4ccc(Cl)cc4CCc4cccnc43)CC2)c1` [Rupatadine Fumarate], for which the cell viability is 1.01.
As to `O=c1[nH]cc(F)c(=O)[nH]1` [Fluorouracil], the cell viability was 1.1.
Turning to `O=c1ncn2nc(Sc3ccc(F)cc3F)ccc2c1-c1c(Cl)cccc1Cl` [Neflamapimod], the cell viability stood at 0.927.
Compound `CNC(=O)c1ccccc1Oc1nc(Nc2cc(OC)c(OC)c(OC)c2)ncc1Br` yielded a cell viability of 1.08.
As for `CC(C)C(=O)SCCCCCCC(=O)Nc1nc(-c2ccccc2)cs1`, the cell viability was determined as 0.995.
On to `CC(=O)Oc1cc(C(F)(F)F)ccc1C(=O)O` [Triflusal], for which the cell viability was determined as 1.06.
Take `CN(C)CCCNC(=O)c1ccc(-c2cc(O)c3ncccc3c2)cc1`: the cell viability is 0.938.
`C[C@@H]1CC[C@@]2(NC1)O[C@H]1C[C@H]3[C@@H]4CC=C5C[C@@H](O[C@@H]6O[C@H](CO)[C@@H](O[C@@H]7O[C@@H](C)[C@H](O)[C@@H](O)[C@H]7O)[C@H](O)[C@H]6O[C@@H]6O[C@@H](C)[C@H](O)[C@@H](O)[C@H]6O)CC[C@]5(C)[C@H]4CC[C@]3(C)[C@H]1[C@@H]2C` [Solamargine] returned a cell viability of 1.06.
Turning to `O=C(O)Cc1ccccc1Nc1c(Cl)cccc1Cl` [Diclofenac sodium], the cell viability was found to be 0.87.
`Cc1c(NC(=O)c2ccc(C(C)(C)C)cc2)cccc1-c1cn(C)c(=O)c(Nc2ccc(C(=O)N3CCOCC3)cc2)n1` had a cell viability of 0.894.
The figure for `C[C@@H](c1ncncc1F)[C@](O)(Cn1cncn1)c1ccc(F)cc1F` [Voriconazole] is 0.977; for `CC1(C)OC(=O)C=C[C@]2(C)[C@H]3CC[C@@]4(C)[C@H](c5ccoc5)OC(=O)[C@H]5O[C@]54[C@]3(C)C(=O)C[C@@H]12` [Obacunone] it is 0.95; for `Cc1cccc(-c2[nH]c(C(C)(C)C)nc2-c2ccc3nccnc3c2)n1` it is 1.06.
`COc1ccc(-c2oc3c(CC=C(C)C)c(O)cc(O)c3c(=O)c2O[C@@H]2O[C@@H](C)[C@H](O)[C@@H](O)[C@H]2O)cc1` [Baohuoside I] had a cell viability of 1.06.
